Screen size: about 310,000 compounds; about 2,200 (0.71%) showed an effect of 50% or more. The effect is printed as a negative number. Some of the results follow.
target: human ether-à-go-go-related gene (hERG) potassium channel (human, UniProt Q12809); test: primary screen, population patch clamp on CHO cells stably expressing hERG
Sequence (Q12809 whole entry, looked up): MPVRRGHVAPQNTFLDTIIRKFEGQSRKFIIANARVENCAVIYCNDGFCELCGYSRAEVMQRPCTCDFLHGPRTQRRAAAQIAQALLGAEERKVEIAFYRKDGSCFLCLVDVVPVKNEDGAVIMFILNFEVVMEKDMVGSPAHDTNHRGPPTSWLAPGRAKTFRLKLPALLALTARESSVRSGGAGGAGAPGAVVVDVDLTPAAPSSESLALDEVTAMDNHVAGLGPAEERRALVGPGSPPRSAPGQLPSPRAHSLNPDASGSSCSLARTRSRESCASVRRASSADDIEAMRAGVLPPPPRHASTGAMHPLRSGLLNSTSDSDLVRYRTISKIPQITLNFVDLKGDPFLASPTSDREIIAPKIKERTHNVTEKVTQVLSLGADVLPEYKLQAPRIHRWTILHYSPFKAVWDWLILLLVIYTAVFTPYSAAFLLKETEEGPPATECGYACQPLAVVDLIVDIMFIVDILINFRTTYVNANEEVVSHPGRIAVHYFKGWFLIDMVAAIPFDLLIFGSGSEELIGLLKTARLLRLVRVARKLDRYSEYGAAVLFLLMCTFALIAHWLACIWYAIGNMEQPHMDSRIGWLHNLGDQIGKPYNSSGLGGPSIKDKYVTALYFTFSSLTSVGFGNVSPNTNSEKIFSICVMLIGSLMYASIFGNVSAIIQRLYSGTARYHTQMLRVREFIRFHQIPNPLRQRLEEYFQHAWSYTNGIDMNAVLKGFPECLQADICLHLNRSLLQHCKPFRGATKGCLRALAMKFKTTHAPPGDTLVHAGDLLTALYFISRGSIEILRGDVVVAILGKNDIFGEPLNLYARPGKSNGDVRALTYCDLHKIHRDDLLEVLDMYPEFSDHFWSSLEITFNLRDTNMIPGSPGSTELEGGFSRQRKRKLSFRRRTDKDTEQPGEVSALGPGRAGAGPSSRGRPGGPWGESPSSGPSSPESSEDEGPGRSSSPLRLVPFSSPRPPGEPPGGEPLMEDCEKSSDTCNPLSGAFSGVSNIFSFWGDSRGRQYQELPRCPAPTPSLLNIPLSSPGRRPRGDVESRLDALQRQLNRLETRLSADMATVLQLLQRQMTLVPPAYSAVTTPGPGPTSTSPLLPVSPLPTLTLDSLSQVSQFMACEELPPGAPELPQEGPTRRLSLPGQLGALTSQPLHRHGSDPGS

| SMILES | hERG current change (%, negative = inhibition) at 1uM |
| --- | --- |
| COC(=O)C1=C(c2cccc(OC)c2OC)C[C@@H]2CC[C@H]1N2C(=O)NCCS(C)=O (stereo partly drawn) | 8.02% |
| COc1ccccc1N=c1oc2cc(O)ccc2cc1C(N)=O | 1.32% |
| O=C(CCc1nnc2ccc(NCc3ccc(Cl)cc3)nn12)NC1CCCCC1 | 4.16% |
| O=C(/C=C/c1cc([N+](=O)[O-])ccc1OC(F)F)NCc1ccc(F)cc1 | -2.89% |
| CCOc1ccc(CC(=O)Nc2cc(=O)n(C)c(=O)n2C)cc1 | 18.2% |
| O=C(Nc1cc(Cl)cc(Cl)c1)C1CCC(=O)N1Cc1ccccc1Cl (stereo not drawn) | 10.4% |
| Cc1cc(=O)oc2cc(OCC(=O)Nc3nnc(C(C)C)s3)ccc12 | 18% |
| COc1cc2cc(C(c3nnnn3C(C)(C)C)N3CCC(C)CC3)c(=O)[nH]c2cc1OC (stereo not drawn) | -1.68% |
| Cc1ccc(CN(c2ccc(C(=O)N3CCc4ccccc4C3)cc2)S(C)(=O)=O)cc1 | 6.97% |
| C/C=C/C=C\C(=O)Nc1cccc(C2=NOC3(C2)C[C@H](C(N)=O)N(C(=O)CC#N)C3)c1 (stereo partly drawn) | 3.43% |
| Cc1nn(CC(=O)NCCCN2CCN(C)CC2)c(=O)c2cc(-c3ccccc3)nn12 | 12.5% |
| CCNc1ccccc1C(=O)O | 5.34% |
| CC(C)N(CCNC(=O)c1ccc(CS(=O)(=O)c2c(Cl)cccc2Cl)o1)Cc1ccccc1 | -3.94% |
| CCC(Cc1ccccc1)NC(=O)CCc1ccccc1 (stereo not drawn) | 12.9% |
| S=c1[nH]c2ccccc2c2ccccc12 | 15.2% |
| COc1ccc(/C=C/C(=O)Nc2ccc3c(c2)CCC3)cc1OC | 7.46% |
| CCOc1ccc(C(=O)NC(=S)NCCCN2CCOCC2)cc1 | -26.5% |
| COC(=O)C1=C(O)/C(=C\c2ccc(OCC(=O)Nc3ccccc3)cc2)N=C1C | 8.73% |
| COc1ccc(OC)c(CN2CCCC(C(=O)c3sccc3C)C2)c1 (stereo not drawn) | -33% |
| CCOc1ccc(Nc2cc(C)nc3c(C)cccc23)cc1 | -14.9% |
| CN(C)CCNC(=O)c1ccccc1 | -1.61% |
| Cc1ccc(CNC(=O)C2CCN(S(=O)(=O)c3cccs3)CC2)cc1 | 11.9% |
| CSc1ccc(C(=O)C2CCCN(C(=O)CCc3cnn(C)c3)C2)cc1 (stereo not drawn) | 3.11% |
| CCOC(=O)C(NC(C)=O)(Nc1ccc(S(=O)(=O)Nc2cc(C)nc(C)n2)cc1)C(F)(F)F (stereo not drawn) | 12.5% |
| Cc1c(C(=O)OCC(=O)N(C)CC(=O)Nc2ccc(F)cc2)oc2ccccc12 | 11.7% |
| c1ccc(Cn2nnc3c(N4CCc5ccccc5C4)ncnc32)cc1 | 1.44% |
| Cc1ccccc1OCc1nnc(SCC(=O)O)n1-c1cccc(Cl)c1 | 11.1% |

| SMILES | hERG current change (%, negative = inhibition) at 1uM |
| --- | --- |
| CCCc1cc(=O)oc2cc(C)cc(OC(C)C(=O)NCC3CCC(C(=O)O)CC3)c12 (stereo not drawn) | 7.86% |
| CCC(C)NC(=O)CSc1nc2ccc(N3CCOCC3)cc2c(=O)n1CCc1ccccc1 (stereo not drawn) | 7.68% |
| O=C(NC(=S)Nc1c(Cl)ccc2nsnc12)c1ccco1 | 22.9% |
| CC(=O)Nc1cccc(O)c1 | 18.4% |
| O=C(COc1ccc(S(=O)(=O)Nc2cccc(C(F)(F)F)c2)cc1)N1CCOCC1 | 9.93% |
| COc1cccc(S(=O)(=O)NCc2ccc(C(=O)NCC3CCCO3)cc2)c1 (stereo not drawn) | 5.12% |
| O=C(N/N=C/c1ccc([N+](=O)[O-])o1)c1cc(-c2ccc(-c3ccccc3)cc2)nc2ccccc12 | 14.8% |
| CCc1ccc(NC(=O)CSc2n[nH]c(C)c2[N+](=O)[O-])cc1 | 8.7% |
| CC#CCN1c2ccccc2[C@]23C[C@@H](C(=O)OC)N(C(=O)c4ccc(Br)cc4)C2=NC(C(=O)OC)=C(C(=O)OC)[C@H]13 | 8.89% |
| C/C(=N\NC(=O)c1c([N+](=O)[O-])c(C)nn1C)c1ccc(NC(=O)c2ccc(C)o2)cc1 | 9.85% |
| N#C/C(=C/c1cn(-c2ccccc2)nc1-c1cccc(S(=O)(=O)N2CCOCC2)c1)C(=O)NCc1ccco1 | 8.12% |
| Cc1ccc(CN(C)C(=O)c2cc(COc3ccc(F)cc3Cl)on2)o1 | 0.493% |
| COc1ccc(C(=O)N2CCCC(N3CCN(c4ccccc4F)CC3)C2)c(OC)n1 (stereo not drawn) | 11% |
| COc1cc(NC(=O)COC(=O)Cc2ccc(-c3ccccc3)cc2)cc(OC)c1 | 17.4% |
| CN1CCN(C(=S)Nc2cccc(C(F)(F)F)c2)CC1 | 11.6% |
| Cc1ccc(/C=C2\SC(=S)N(C3CCS(=O)(=O)C3)C2=O)o1 (stereo not drawn) | 4.32% |
| COc1ccccc1OCC(O)COC(N)=O (stereo not drawn) | 10.7% |
| COc1ccc(/C=C2\Cc3ccccc3C2=O)cc1OC | 14.1% |
| Cc1ccc(CN2CCN(Cc3c[nH]c4ccccc34)CC2CCO)o1 (stereo not drawn) | 5.35% |
| N#CCc1ccc(NS(=O)(=O)c2ccc(C3CCCCC3)cc2)cc1 | 14.4% |
| COc1ccc(C(=O)NC(C)Cn2nc(C)cc2C)cc1OC1CCN(C(C)=O)CC1 (stereo not drawn) | 2.14% |
| CC(C)(C)OC(=O)N1CCC(NC(=O)c2nc[nH]c2C(=O)NCC(=O)OCc2ccccc2)CC1 | 3.61% |
| Cc1nn(Cc2ccccc2Cl)c(C)c1NC(=O)/C=C/c1cnn(C)c1 | 11.2% |
| Fc1cccc(F)c1-c1nc2c(s1)CCc1onc(-c3ccc(Br)cc3)c1-2 | 24.3% |
| CN1CCN(C(=O)CN(c2cc(C(F)(F)F)ccc2Cl)S(C)(=O)=O)CC1 | 12.6% |
| Cc1ccc(-c2nnc(SCC(=O)N/N=C/c3ccc(C)s3)n2-c2ccccc2)cc1 | 0.479% |
| COC(=O)C(C)Oc1ccc2c3c(c(=O)oc2c1)CCCCC3 (stereo not drawn) | 10.5% |

Reference: publication PMC4336329 (PLoS ONE, 2015)
